Laboratory results taken from the supplement of paper PMC3334620.
The full ranking holds about 33,000 sequences; the median of “E-score (-0.5 to 0.5)” is about -0.054, and the highest 2% start at about 0.35. This is one part of the list.

Each sequence was assayed against T1, Stb5 (UniProt P38699) (assay: PBM E-score (8-mer binding enrichment) (E-score (-0.5 to 0.5)); higher = stronger / more preferred TF binding; most listed sequences are background and not binding sites). Settings: protein concentration: 200 nM; construct: GST-full length.
T1 sequence: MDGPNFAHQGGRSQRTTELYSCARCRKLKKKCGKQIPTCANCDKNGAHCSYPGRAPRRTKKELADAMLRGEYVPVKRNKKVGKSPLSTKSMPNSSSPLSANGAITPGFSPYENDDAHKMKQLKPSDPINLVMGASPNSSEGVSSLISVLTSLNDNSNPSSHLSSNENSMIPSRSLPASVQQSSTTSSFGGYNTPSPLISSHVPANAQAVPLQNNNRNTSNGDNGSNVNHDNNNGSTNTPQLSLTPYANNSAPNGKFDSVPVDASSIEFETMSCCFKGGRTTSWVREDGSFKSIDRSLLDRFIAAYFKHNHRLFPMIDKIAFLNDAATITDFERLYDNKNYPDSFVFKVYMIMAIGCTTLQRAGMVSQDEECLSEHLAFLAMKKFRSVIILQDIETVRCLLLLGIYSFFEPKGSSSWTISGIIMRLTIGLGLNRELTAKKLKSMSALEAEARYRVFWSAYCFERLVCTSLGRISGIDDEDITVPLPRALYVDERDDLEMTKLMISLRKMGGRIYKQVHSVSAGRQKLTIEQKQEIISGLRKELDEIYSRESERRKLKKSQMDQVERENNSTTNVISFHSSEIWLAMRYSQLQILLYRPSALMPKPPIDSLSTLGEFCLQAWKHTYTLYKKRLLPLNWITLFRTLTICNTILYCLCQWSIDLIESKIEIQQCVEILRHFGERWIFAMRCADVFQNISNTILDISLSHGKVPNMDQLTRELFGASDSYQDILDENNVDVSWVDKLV
In short: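 Yeast transcription factors, full-length or as DNA-binding domains, were expressed with a GST tag using PURExpress in vitro transcription/translation. At about 100-200 nM they were applied to universal all-10-mer Agilent arrays, double-stranded by primer extension on fresh or once-stripped slides. Fluorescent anti-GST detected bound protein, and masliner normalised the scans. E-scores for ungapped eight-base words, pooled with reverse complements, came from the Universal PBM Analysis Suite.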

| Sequence | PBM E-score |
| --- | --- |
| AATTTCAC | -0.0465 |
| AAGCACTC | -0.0364 |
| GCGGAGCA | 0.236 |
| CGCATAGC | 0.156 |
| ACGAAGAT | -0.187 |
| ACACTGTC | -0.186 |
| ATCGTTAA | -0.0225 |
| CTATTTTA | 0.0471 |
| CCTGGTAC | -0.0244 |
| AGTGGTCC | -0.0888 |
| GTAATGTA | -0.202 |
| CCAACAAG | -0.31 |
| CGTTACAG | -0.113 |
| AGGGTTCA | -0.22 |
| GTTACACA | -0.108 |
| ATAATAGG | -0.0545 |
| ATCATGTC | 0.0278 |
| ACTGTACT | -0.344 |
| CAGAGGGG | -0.107 |
| CTCTATTA | -0.0617 |
| AAGGCTAG | -0.212 |
| ACCCTGTA | -0.128 |

| Sequence | PBM E-score |
| --- | --- |
| CGTTGGCC | 0.0255 |
| GTTTCTAA | 0.0616 |
| CAGTGCAA | -0.218 |
| GTTTACTA | -0.0166 |
| GGCGTTTA | 0.278 |
| TACACCCA | -0.0438 |
| CAAATTTG | -0.0835 |
| ACCAGTCA | 0 |
| ATAAATTA | 0.0577 |
| CACCATAC | -0.0843 |
| GTTGACGA | -0.196 |
| CAACTCTC | -0.219 |
| CCAATCCC | -0.0254 |
| AAGTTAAC | 0.00531 |
| ACTATCTC | 0.0778 |
| CGTATGTC | 0.0973 |
| CCTTGCGC | -0.0818 |
| CCTACACG | -0.161 |
| CCAAAGGG | -0.177 |
| ACAGCAGA | -0.139 |
| GGACATCC | 0.148 |
| TTAATGAA | -0.036 |

| Sequence | PBM E-score |
| --- | --- |
| CTATCAAC | 0.024 |
| GCTTCCCA | -0.0491 |
| AAAGCTTC | -0.21 |
| ATATCGAT | -0.233 |
| CTATGCTA | -0.0476 |
| ATGTTGAC | 0.0757 |
| CAGGGGGA | -0.365 |
| GAGTCTAC | -0.208 |
| GTGAATAA | -0.158 |
| AGGACCCT | -0.274 |
| AGACACAA | -0.00012 |
| CGTAAAAA | 0.0566 |
| ATGCTTTG | -0.138 |
| ATAATTAT | -0.134 |
| CTTGTGCC | 0.0758 |
| ATAAATGC | 0.143 |
| ACCTTTCT | -0.161 |
| CCTCTACC | -0.103 |
| ACAGAGGG | -0.171 |
| ATCAACCG | 0.0635 |
| CCCCAGGC | -0.221 |
| ATTGTATC | 0.0561 |

| Sequence | PBM E-score |
| --- | --- |
| CTCACGGA | 0.0619 |
| ACACTGCC | -0.0882 |
| ATTGGGAC | -0.149 |
| CGCACATC | 0.0102 |
| CTCTCGTC | -0.183 |
| AAGGAACA | -0.11 |
| AATGGCCG | 0.286 |
| ATATCGTG | 0.063 |
| GAAGTGCC | 0.221 |
| GGGATTAC | 0.236 |
| ATTCGGCC | 0.215 |
| GTCATCCA | -0.207 |
| TATGCATA | -0.284 |
| ACTTTCCA | -0.0496 |
| CATTTAGA | 0.0334 |
| CTCAGAGA | -0.0435 |
| TGGTTAAA | 0.0684 |
| AGTAACCG | 0.0383 |
| CGTTGGAA | -0.0823 |
| AACATTGC | -0.0834 |
